# Experimental data reported in PubChem BioAssay AID686978 (National Center for Advancing Translational Sciences (NCATS), 2013).
# Values joined by “and” are separate entries in the source; they are usually repeats but may differ in a detail not shown here. Equal values may be shown once. Screen size: about 420,000 compounds; about 64,000 (15%) were called active. Inconclusive results, whose numbers are uncertain, are shown with a selection of clear calls. Calls come from the whole dose curve; as a rule, active = well fitted inhibition curve with a large enough effect; inconclusive = small, poorly fitted or top-dose-only effect; inactive = flat fitted curve, though single readings scatter. Potencies beside an inconclusive call are fits to weak or partial responses and may not hold up.
# Assay: qHTS for Inhibitors of human tyrosyl-DNA phosphodiesterase 1 (TDP1): qHTS in cells in absence of CPT; note: nearly all actives have a fitted effect of over 55% in size
# Details: DT40 Tdp1-/- hTDP1 cells, no CPT, ATP luminescence, 48 h; activity change, negative = growth inhibition: at 46.2 µM (top of the series) unless noted
# In short: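 Chicken DT40 Tdp1-/- cells complemented with human TDP1, screened without camptothecin (DMSO vehicle only), 400 cells/well. Compounds pin-transferred, cells incubated at 37 °C for at least 48 hr. Growth read as ATP-dependent luminescence (CellTiter-Glo, 30 min at RT).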
# % is set by controls: 0 for no effect and ±100 for the full control effect; potency is the fitted concentration of half-maximal effect; tags give direction and shape of the fitted curve.
Structure (SMILES),"activity change, negative = growth inhibition",Potency
C[C@@H]1CN([C@@H](C)CO)C(=O)Cc2cc(NS(=O)(=O)c3cn(C)cn3)ccc2O[C@@H]1CN(C)C(=O)Nc1ccccc1,inactive: -19.4%,–
O=C(N/N=C/c1ccco1)c1cc(-c2ccc(Br)s2)[nH]n1,–,"inconclusive: 16.4 µM [inhibitor, partial curve, poor fit]"
COc1ccc(NC(=O)CSc2nc3c(c(-c4cccs4)c2C#N)CN(C)CC3)cc1OC,–,"inconclusive: 20.6 µM [inhibitor, single point]"
CCn1cc(/C=C(\NC(=O)c2ccccc2Cl)C(=O)NCCN2CCOCC2)c2ccccc21,inactive: -19.8%,–
O=C(Nc1cc(Cl)ccc1N1CCOCC1)c1ccc2c(c1)OCCO2,inactive: -15.9%,–
O=C(CCCCn1c(=O)c2ccccc2n(CC(=O)Nc2cccc(F)c2)c1=O)NCc1ccccc1Cl,inactive: -13.3%,–
CC(C)(C)OC(=O)NCCCC[C@@H](C(=O)NCCCCCCCCCCC(=O)N1CCN(C(=O)OC(C)(C)C)CC1)n1cc(CCCC(=O)O)nn1,–,"inconclusive: 29.1 µM [inhibitor, single point]"
Cc1cccc(NC(=S)NCCc2c[nH]c3ccccc23)c1,–,"inconclusive: 20.6 µM [inhibitor, single point]"
CCN1CCN(C(=O)c2cc(COc3ccc(F)cc3F)on2)[C@@H](C)C1=O,–,active: 16.4 µM
CCOC(=O)CC1C(=O)NCCN1C(=S)NC(=O)c1ccccc1OC (centres undefined),inactive: 5.38%,–
O=C(/C=C/NNC(=O)c1ccc(Cl)cc1)c1ccccc1,–,"inconclusive: 23.1 µM [inhibitor, single point]"
CCOC(=O)Cn1nc(-c2ccc(F)cc2)cc(Cc2ccccc2)c1=O,inactive: -3.42%,–
CSc1ncccc1C(=O)NCCN1Cc2ccccc2OC(c2ccccc2F)C1 (centres undefined),–,"inconclusive: 29.1 µM [inhibitor, single point]"
CCn1cc(CN2CCC(C(=O)Nc3cccc(-c4cccc(F)c4)c3)CC2)cn1,–,"inconclusive: 29.1 µM [inhibitor, single point]"
COc1ccc(CCNC(=O)c2cccc(S(=O)(=O)N3CCc4ccccc4C3)c2)cc1,–,"inconclusive: 29.1 µM [inhibitor, single point]"
CCC(=O)Nc1ccc(C(=O)Nc2cccc(C)n2)cc1,inactive: -23.5%,–
O=C(COC(=O)c1ccccc1Br)NC1CCCCCCC1,inconclusive: -30.7% [inhibitor],–
O=C(Nc1nnc([C@H]2C[C@H](O)[C@@H](CO)O2)s1)c1cccc(Cl)c1,inactive: -8.67%,–
CN(Cc1ccccc1)C(=O)c1cc2c(s1)-c1ccc(Cl)cc1SC2,–,active: 23.1 µM
Cn1cc(/C=C/c2ccnc3ccccc23)c2ccccc21,–,active: 11.2 µM
CCCCN(C)CCNC(=O)Cn1ncc2c([nH]c3ccccc32)c1=O,inactive: 0.49%,–
COc1ccc(C(=O)Nc2ccc(S(=O)(=O)N3CCCCC3)cc2)cc1OC,–,"inconclusive: 25.9 µM [inhibitor, single point]"
CN1CCN(c2ccc(C(=O)c3ccccc3)cc2[N+](=O)[O-])CC1,–,"inconclusive: 25.9 µM [inhibitor, single point]"

Structure (SMILES),"activity change, negative = growth inhibition",Potency
N#CC1=C(N)OC2=C(CN(Cc3ccccc3)C/C2=C\c2cccnc2)C1c1cccnc1 (centres undefined),–,"inconclusive: 20.6 µM [inhibitor, single point]"
Cc1ccc(NC(=O)C(C)N2C(=O)c3ccccc3S2(=O)=O)cc1Cl (centres undefined),inactive: 1.13%,–
COc1cc(NC(=O)CN2C(=O)c3ccccc3S2(=O)=O)c(OC)cc1Cl,inactive: -0.509%,–
COc1ccc(-n2nc(C(=O)NCC(=O)Nc3ccc(F)cc3)c3ccccc3c2=O)cc1,–,"inconclusive: 29.1 µM [inhibitor, single point]"
Cc1ccc(-c2nc3c(c(=O)c4ccccc4n3C)c(=O)n2-c2ccccc2)cc1,–,"inconclusive: 14.6 µM [inhibitor, partial curve, poor fit]"
CCN(CC)c1ncnc2scc(C3COc4ccccc4O3)c12 (centres undefined),–,"inconclusive: 23.1 µM [inhibitor, single point]"
C#Cc1ccc(CN2CCN(Cc3ccsc3)C(CCO)C2)cc1 (centres undefined),–,"inconclusive: 29.1 µM [inhibitor, single point]"
COc1ccccc1CNc1ccnc(-c2ccccc2C(F)(F)F)n1,–,"inconclusive: 16.4 µM [inhibitor, single point]"
COc1cccc(NC(=O)NC(=O)c2c(C)cc(Cl)nc2Cl)c1,inactive: 10.5%,–
O=C(Nc1cnc2sc3c(n2c1=O)CCCC3)c1ccc(F)cc1,–,"inconclusive: 29.1 µM [inhibitor, single point]"
COc1cc(NC(=O)CCN2CCN(c3ccccc3OC)CC2)cc(OC)c1,–,"inconclusive: 25.9 µM [inhibitor, single point]"
CCOc1ccc(CSCCNC(=S)Nc2ccc(OC)cc2)cc1,–,active: 23.1 µM
CCN(c1ccccc1)S(=O)(=O)c1ccc(NCC2COc3ccccc3O2)nc1 (centres undefined),–,"inconclusive: 18.4 µM [inhibitor, single point]"
Cc1noc(C)c1COc1ccc(C(=O)OCC(=O)NC23CC4CC(CC(C4)C2)C3)cc1,–,"inconclusive: 29.1 µM [inhibitor, single point]"
Cc1cccc(NS(=O)(=O)c2cccc(C(=O)N3CCCCCCC3)c2)c1,–,active: 5.17 µM
COc1ccc(C2NC(=O)NC(C)=C2C(=O)OCC2CCCCC2)cc1OC (centres undefined),–,"inconclusive: 29.1 µM [inhibitor, single point]"
CCOC(=O)CCN(c1ccccc1)S(=O)(=O)c1ccc2[nH]c(=O)ccc2c1,inactive: -19.9%,–
Cc1ccc(S(=O)(=O)N2CCC(=O)N(C(COCc3cccc(Cl)c3)C(C)C)CC2)cc1 (centres undefined),–,active: 20.6 µM
Cn1cc(/C=N/Nc2ccccc2)c2ccccc21,–,"inconclusive: 29.1 µM [inhibitor, single point]"
Cc1ccc2nc3cc([N+](=O)[O-])cc([N+](=O)[O-])c3cc2c1,–,active: 0.58 µM
CCOCCCNC(=O)CN1C(=O)c2c(c3ccccc3n2C)C1c1ccc(OC)cc1 (centres undefined),–,"inconclusive: 29.1 µM [inhibitor, single point]"
C/C=C/c1cc(OC)c2c(c1)[C@H](C)[C@@H](c1ccc(O)c(OC)c1)O2,–,"inconclusive: 18.4 µM [inhibitor, partial curve]"
CC1CN(c2nc(Nc3ccccc3F)nc(N)c2[N+](=O)[O-])CC(C)O1 (centres undefined),–,"inconclusive: 25.9 µM [inhibitor, single point]"

Structure (SMILES),"activity change, negative = growth inhibition",Potency
COc1ccc(CCCc2nnc(SCC(=O)Nc3ccccc3F)o2)cc1C,–,"inconclusive: 18.4 µM [inhibitor, partial curve]"
CC(NC(=O)c1ccco1)C(=O)N(C)Cc1ccc(C(F)(F)F)cc1 (centres undefined),inconclusive: -34.2% [inhibitor],–
COc1ccc(C(=O)N2CCOC2CNC(=O)C(=O)NCc2ccc3c(c2)OCO3)cc1 (centres undefined),inactive: -0.477%,–
c1ccc2sc(NC3=NCN(C4CCCCC4)CN3)nc2c1,–,"inconclusive: 25.1 µM [inhibitor, partial curve]"
O=C(NNC(=O)C1CCN(S(=O)(=O)c2ccc(Cl)cc2)CC1)c1ccccc1O,–,"inconclusive: 18.4 µM [inhibitor, single point]"
CC(=O)Nc1ccc(Nc2nnc(-c3ccc(O)cc3)c3ccccc23)cc1,inactive: -0.188%,–
O=C(NCC(c1cccs1)S(=O)(=O)c1cccs1)c1ccc(C(F)(F)F)cc1 (centres undefined),–,"inconclusive: 29.1 µM [inhibitor, single point]"
CCOc1ccccc1NC(=O)N1CCCn2nc(C)cc21,–,"inconclusive: 20.6 µM [inhibitor, single point]"
Cc1ccnc(NC(=O)CN2C(=O)NC(C)(c3ccc4ccccc4c3)C2=O)c1 (centres undefined),–,"inconclusive: 29.1 µM [inhibitor, single point]"
CN1C(=O)c2ccccc2Sc2ccc(NC(=O)N3CCOCC3)cc21,–,"inconclusive: 25.9 µM [inhibitor, single point]"
COc1ccc(NC(=S)Nc2ccc3cn[nH]c3c2)cc1,inactive: 7.76%,–
O=C(Nc1cccnc1)C1CC(=O)N(c2ccc(F)cc2)C1 (centres undefined),inactive: -21.2%,–
Cc1ccc2cc3cc(C(=O)NC4CCCCC4)oc3nc2c1,–,"inconclusive: 29.1 µM [inhibitor, single point]"
OCCNCc1cccc(OCc2ccc(Cl)cc2)c1,–,"inconclusive: 29.1 µM [inhibitor, single point]"
CCN(CCCNc1cc2c(c(N)c1S(=O)(=O)O)C(=O)c1ccccc1C2=O)c1ccccc1,–,active: 18.4 µM
CCCn1c(N2CCC(Cc3ccccc3)CC2)nc2c1c(=O)[nH]c(=O)n2C,–,"inconclusive: 23.1 µM [inhibitor, single point]"
COc1ccc(N(C(=O)COc2ccc(Br)cc2)S(=O)(=O)c2ccc(C)cc2)cc1,–,active: 20.6 µM
O=C(c1ccc2ccccc2n1)N1CCN(S(=O)(=O)c2ccccc2)CC1,–,"inconclusive: 20.6 µM [inhibitor, single point]"
Cc1ccc(NC(=O)CCc2c(C)nn(-c3ccc(N4CCOCC4)nn3)c2C)cc1F,–,"inactive and inconclusive: 13 µM [inhibitor, partial curve, poor fit]"
O=C(CCCN1C(=O)/C(=C/c2ccco2)SC1=S)Nc1cccc(C(=O)O)c1,inactive: 5.8%,–
CCN(CC)C(=O)N1CCN(S(=O)(=O)c2ccc(C)c(C)c2)CC1,–,"inconclusive: 23.1 µM [inhibitor, partial curve]"
COc1ccc(N(C(=O)c2snc(C(N)=O)c2N)C(C(=O)NC2CCCC2)c2ccco2)cc1 (centres undefined),–,"inconclusive: 29.1 µM [inhibitor, single point]"
CS(=O)(=O)c1[nH]nc(-c2ccccc2Cl)c1C#N,inactive: -18.8%,–
